Data as given in PubChem BioAssay AID1347073 (National Center for Advancing Translational Sciences (NCATS), 2019).
Out of some 45,000 compounds screened, about 200 (0.44%) were called active. Inconclusive results (about 7%) are left out. Calls follow the shape of the dose curve; as a rule, active = well fitted activation curve with a large enough effect; inconclusive = small, poorly fitted or top-dose-only effect; inactive = no such curve, though single readings can be large or run the other way. The list shows a part of the results.

Experiment: qHTS of TDP-43 Inhibitors: NCGC Sytravon Library Screen; also: 0% is about no effect; nearly all actives have a fitted effect of over 55% in size
Settings: yeast TDP-43 toxicity rescue, BacTiter-Glo growth, 24 h; series mostly up to 46.1 µM; growth rescue (activation): at the top concentration
Summary of the method: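 TDP-43-expressing yeast, pregrown in raffinose, seeded at OD600 0.02 in galactose medium with compound for 24 hr at 30 deg C. Growth read by BacTiter-Glo luminescence, so rescue of toxicity appears as activation.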

SMILES	growth rescue (activation)
Cc1ccccc1N(C(=O)c1cccs1)c1nc2ccccc2s1	inactive: -5.35%
CC1(C)OC(=O)C(=NNc2ccc(Br)cc2)C(=O)O1	inactive: 30.3%
O=S(=O)(NCCN1CCOCC1)c1cccs1	inactive: 6.47%
Cc1cccc(NCCC#N)c1	inactive: 19.5%
C[n+]1ccn(CC(=O)c2ccc(Cl)cc2)c1	inactive: 8.29%
O=C(NCCn1cccn1)c1ccc(OC2CCN(CCc3ccccc3)CC2)cc1	inactive: 15.7%
CCOC(=O)C1(CCOc2ccccc2)CCN(Cc2ccncc2)CC1	inactive: -9.05%
COC(=O)c1nn(-c2ccccc2)c(Cl)c1/C=N/OCc1ccc(Cl)cc1Cl	inactive: 12%
CC(=O)c1cccc(NC(=O)CC2CCCC2)c1	inactive: 5.58%
O=C(N/N=C/c1ccc(OCc2ccccc2)cc1)c1ccco1	inactive: 25.6%
O=C(Nc1ccc2c(c1)OCO2)C1CC(=O)N(c2ccc(F)cc2)C1 (stereo not drawn)	inactive: 13.5%
Cc1oc2cc([N+](=O)[O-])c(O)c([N+](=O)[O-])c2c1C(=O)c1ccc(Br)cc1	inactive: -38%
Nc1nc(NCc2ccco2)nc(Nc2ccccc2)c1[N+](=O)[O-]	inactive: 19.3%
CCCCN(C)CCCNC(=O)c1cc(=O)[nH]c2ccc(S(=O)(=O)N3CCCCC3C)cc12 (stereo not drawn)	inactive: -0.641%
Cc1ccc([N+](=O)[O-])cc1NC(=O)CN(C1CCCCC1)S(=O)(=O)c1ccc(Cl)cc1	inactive: 20.4%
Cc1ccccc1C(=O)Nc1sc2c(c1C(=O)O)CCC2	inactive: -10.2%
O=C(O)c1cc(NCc2ccccc2)ccc1N1CCOCC1	inactive: 13.1%
O=C(NCc1n[nH]c(=S)n1-c1ccc(Cl)c(Cl)c1)c1ccc(S(=O)(=O)N2CCCCC2)cc1	inactive: -2.76%
Cn1c(N)c(C(=O)COC(=O)CNC(=O)c2ccccc2)c(=O)n(C)c1=O	inactive: -8.46%
CCN(CC(=O)NC1CCS(=O)(=O)C1)S(=O)(=O)c1ccc(Br)cc1 (stereo not drawn)	inactive: 2.54%
CCN(CC)S(=O)(=O)c1cc(NC(=O)CNc2c(C)n(C)n(-c3ccccc3)c2=O)ccc1C	inactive: -0.258%
COc1ccc(-c2cc(C(=O)NCC(c3ccccc3)N(C)C)c3ccccc3n2)cc1OC (stereo not drawn)	inactive: 3.74%
O=C(NCc1ccc(F)cc1)C(c1ccc(Cl)cc1)N(C(=O)c1csnn1)C1CC1 (stereo not drawn)	inactive: 1.69%

SMILES	growth rescue (activation)
O=C(Nc1nccs1)C1CCN(S(=O)(=O)c2ccccc2)CC1	inactive: -6.19%
CCOC(=O)/C=C1/N(C)c2ccccc2C1(C)C	inactive: 2.09%
CC(=O)NCCCNS(=O)(=O)c1ccc(C)cc1	inactive: 6.31%
Cc1cc(N=Cc2c(O)n(-c3cccc(Cl)c3)c(=O)c3ccccc23)no1	inactive: 10.1%
O=C(NNC(=O)C12CC3CC(CC(C3)C1)C2)c1ccccc1[N+](=O)[O-]	inactive: -2.04%
O=C(COc1ccccc1[N+](=O)[O-])NCCC1=CCCCC1	inactive: 25.1%
O=C(CSc1ccc([N+](=O)[O-])cc1)Nc1nnc(C2CC2)s1	inactive: -5.79%
COc1cc(/C=C/C(=O)O)cc(S(=O)(=O)Nc2ccccc2Cl)c1OC	inactive: -1.01%
CN1N=C(C(=O)Nc2ccc3c(c2)CCC3)CCC1=O	inactive: 3.32%
O=C(CSc1ncn[nH]1)NCCc1ccc(Cl)cc1Cl	inactive: 11.9%
CCOC(=O)/C=C/C(=O)Nc1ccc(S(=O)(=O)Nc2cc(C)on2)cc1	inactive: 2.97%
Cc1c(C(N)=O)sc2ncn(CC(=O)N(C)C3CCCCC3)c(=O)c12	inactive: 0.0385%
CCCC(=O)Nc1ccc(NC(=O)C2CC2)cn1	inactive: 1.02%
CC(=O)Nc1c(C)nn(C(C)=O)c1C	inactive: 15.7%
Cn1c(NCc2c[nH]c3ccccc23)nc2ccccc21	inactive: 20.7%
CCOc1cc(C2c3c(oc4ccccc4c3=O)C(=O)N2c2ccccn2)ccc1O (stereo not drawn)	inactive: 7.15%
Cc1cc(Nc2ncc(Cl)cc2Cl)n(-c2ccccn2)n1	inactive: 3.2%
COc1ccc(C(=O)C2CCCN(S(=O)(=O)c3cccc(C)c3)C2)c(C)c1 (stereo not drawn)	inactive: 8.5%
COc1ccccc1/C=N/NC(=O)CO	inactive: 3.44%
CNC(=O)c1c2c(nc3ccc(Br)cc13)CCCC2	inactive: 10.2%
CCCCCCn1c(N2CCN(c3cccc(Cl)c3)CC2)nc2c1c(=O)[nH]c(=O)n2C	inactive: 15.3%
COc1ccc(OC)c(Nc2nc(NCCCN(C)C)nc(N)c2[N+](=O)[O-])c1	inactive: -4.64%
CC1(C(=O)NS(=O)(=O)c2cccc(C#N)c2)CCN1C(=O)c1ccc(C2CCCCC2)cc1 (stereo not drawn)	inactive: 19.7%

SMILES	growth rescue (activation)
Cn1c(=O)c2cn(-c3cccc4ccccc34)cc2n(C)c1=O	inactive: 18.1%
CC(Oc1ccc(C(=O)c2ccccc2)cc1)C(=O)Nc1ccc(S(N)(=O)=O)cc1 (stereo not drawn)	inactive: 32.3%
O=C1CC(c2ccccc2)CC(O)=C1C=Nc1cccc(Cl)c1 (stereo not drawn)	inactive: -86.8%
O=C(CC(=O)Nc1ccccc1[N+](=O)[O-])Nc1ccccc1[N+](=O)[O-]	inactive: -9.79%
CCN(CC)CCCNC(=O)c1cc(Nc2ccc(OC)cc2)nc2ccccc12	inactive: -2.68%
CCc1c(C)nc(SCCOc2ccc(OC(C)C)cc2)[nH]c1=O	inactive: 29.5%
O=C(O)c1cccc(NC(=O)c2cccc(S(=O)(=O)N3CCc4ccccc43)c2)c1	inactive: -2.8%
CCn1c(O)c(C=Nc2ccccc2)sc1=S	inactive: 0.117%
CS(=O)(=O)N1CCN(c2ccc(NC(=S)NC(=O)c3ccccc3[N+](=O)[O-])cc2)CC1	inactive: 5.77%
C/C(CC(=O)Nc1ccc(C)c(Cl)c1)=N\NC(=O)Cc1ccccc1	inactive: 7.98%
CCC(C)NC(=O)C1CCN(S(=O)(=O)N2CCC3(CC2)OCCO3)CC1 (stereo not drawn)	inactive: 5.17%
C/C(N)=C(/C#N)C(=O)COC(=O)COc1ccc(Cl)cc1	inactive: -2.59%
CC1=C(C(=O)N2CCOCC2)C(c2ccc(C)cc2)NC(=S)N1 (stereo not drawn)	inactive: 0.155%
O=C1OCCC1Sc1nnc(-c2cccnc2)n1-c1ccccc1F (stereo not drawn)	inactive: -3.31%
CC1(c2ccc(Cl)cc2)NC(=O)N(CC(=O)NC2CCCCC2)C1=O (stereo not drawn)	inactive: -6.33%
CC(C)(C)NC(=O)c1ccc2c(c1)C1C3CCC(C3)C1C(c1ccccc1)N2 (stereo not drawn)	inactive: 30.2%
COc1cc2c(cc1OC)-c1cc(Nc3ccccc3Br)nc(=O)n1CC2	inactive: 25%
COc1ccc(CCNC(=O)CNC(=O)Cn2cnc3sc(C)c(C)c3c2=O)cc1OC	inactive: -1.8%
O=C(O)CCc1ccc(S(=O)(=O)Nc2ccccc2C(=O)NCCc2ccccc2)cc1	inactive: -2.41%
CCOC1=NN(c2ccccc2)C(=O)/C1=C\N(C)C	inactive: -7.82%
Clc1ccc(-c2csc(N/N=C\c3cccnc3)n2)cc1	inactive: 20.6%
Cc1ccc(-n2c(SCC(=O)NCc3ccc4c(c3)OCO4)nnc2-c2cccnc2)c(C)c1	inactive: 32.9%
